Experimental data published in the CheMixHub viscosity set.
The source gives many values for each of these; only a part stands here.

Assay: xn = mol fraction of the nth substance listed

CC(C)C[C@H](N)C(=O)O + O
viscosity [mPa·s], 100 kPa
Conditions	x1 = 0.000274	x1 = 0.000632	x1 = 0.000806	x1 = 0.000995	x1 = 0.00117	x1 = 0.00136	x1 = 0.00153	x1 = 0.00172
313.15 K	–	–	–	0.678	0.681	0.684	0.688	0.691
318.15 K	0.605	0.612	0.616	0.619	0.622	0.625	0.629	0.632

CNCCO + O
viscosity [mPa·s], 101 kPa
Conditions	318.15 K	323.15 K
x1 = 0.0844	–	1.428
x1 = 0.1894	–	3.056
x1 = 0.3001	–	4.842
x1 = 0.4014	–	5.965
x1 = 0.448	7.656	6.242
x1 = 0.5016	7.898	6.427
x1 = 0.5474	7.836	6.424
x1 = 0.6004	7.778	6.375
x1 = 0.7021	7.177	5.923
x1 = 0.7975	6.425	5.36
x1 = 0.9048	5.645	4.747

O=C1O[C@H]([C@@H](O)CO)C(O)=C1O + O
viscosity [mPa·s]
Conditions	293.15 K	298.15 K	303.15 K	308.15 K	313.15 K	318.15 K
100 kPa, x1 = 0.0001803	–	0.9002	0.8061	0.7269	0.6595	0.6016
100 kPa, x1 = 0.000376	1.008	0.898	0.804	0.725	0.66	0.607
100 kPa, x1 = 0.0005398	–	0.9089	0.8131	–	0.6642	0.606
100 kPa, x1 = 0.000729	1.013	0.903	0.809	0.73	0.665	0.612
100 kPa, x1 = 0.0008994	–	0.9167	0.8202	0.7387	0.6692	0.6107
100 kPa, x1 = 0.00109	1.017	0.908	0.814	0.735	0.67	0.617
100 kPa, x1 = 0.001258	–	0.9264	–	0.7467	–	0.617
100 kPa, x1 = 0.00146	1.023	0.914	0.819	0.74	0.674	0.621
100 kPa, x1 = 0.001797	–	0.9385	0.8386	0.7554	0.6851	–
100 kPa, x1 = 0.001827	1.028	0.919	0.825	0.745	0.679	0.626
100 kPa, x1 = 0.002191	1.035	0.924	0.831	0.75	0.684	0.632
100 kPa, x1 = 0.002694	–	0.9561	0.8555	0.7704	0.6979	0.6359
101 kPa, x1 = 0.00155	–	–	–	–	–	0.6163
101 kPa, x1 = 0.001856	–	–	–	–	–	0.621
101.3 kPa, x1 = 0.001875	–	0.951	0.827	0.778	0.676	–
101.3 kPa, x1 = 0.003776	1.078	0.978	0.857	0.805	0.698	–
101.3 kPa, x1 = 0.005404	1.124	–	0.889	0.832	0.723	–
